Laboratory results: PubChem BioAssay AID686978 (National Center for Advancing Translational Sciences (NCATS), 2013)
The campaign covered roughly 420,000 compounds. About 64,000 (15%) were called active. Inconclusive means that the source gave no clear call. Such entries were picked first, then a sample of the others. Calls come from the whole dose curve; as a rule, active = well fitted inhibition curve with a large enough effect; inconclusive = small, poorly fitted or top-dose-only effect; inactive = flat fitted curve, though single readings scatter. No potency is given beside an inconclusive call; the fits are too rough.

Assay: qHTS for Inhibitors of human tyrosyl-DNA phosphodiesterase 1 (TDP1): qHTS in cells in absence of CPT; note: nearly all actives have a fitted effect of over 55% in size
Conditions: DT40 Tdp1-/- hTDP1 cells, no CPT, ATP luminescence, 48 h; activity change, negative = growth inhibition: at 46.2 µM (top of the series) unless noted
Summary of the method: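 Stably hTDP1-transfected Tdp1-null chicken DT40 cells were treated with library compounds minus camptothecin and grown for at least 48 hr at 37 °C, after which cellular ATP was quantified by luminescence.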
% is set by controls: 0 for no effect and ±100 for the full control effect; potency is the fitted concentration of half-maximal effect; tags give direction and shape of the fitted curve.

Row | Structure (SMILES) | Potency | activity change, negative = growth inhibition
1 | O=c1c(F)cn(C2CCCO2)c(=O)n1Cc1c(Cl)cccc1Cl (stereo not given) | inactive | –
2 | Cc1cccc(CNC(=O)c2cnn(-c3nccc(-c4ccccc4F)n3)c2C2CC2)n1 | inactive | –
3 | CN(CC1CCCN(CCc2cccc(C(F)(F)F)c2)C1)C(=O)c1ccco1 (stereo not given) | inactive | –
4 | Cc1nc2sc(C(=O)OCC(=O)N3c4ccccc4CC3C)c(C)c2c(=O)[nH]1 (stereo not given) | inconclusive [inhibitor, single point] | –
5 | Cc1cc(=O)n2c(C(=O)Nc3ccc(C(=O)OC(C)C)cc3)c(C(=O)Nc3ccccc3)sc2n1 | active: 14.6 µM | –
6 | COCc1c(C(=O)N2CCN(C3CCCC3)CC2)cnn1-c1nccc(-c2cccs2)n1 | inactive | –
7 | COc1cccc(C=O)c1OCCCOc1cccc2cccnc12 | active: 20.6 µM | –
8 | O=S(=O)(c1ccccc1)c1nc(-c2ccco2)oc1NCCCN1CCOCC1 | inactive | –
9 | N#Cc1c(NC(=O)/C=C/C(=O)O)sc2c1CCN(Cc1ccccc1)C2 | inconclusive [inhibitor, partial curve, poor fit] | –
10 | COC[C@@H]1CCCN1c1ccc2c(c1)O[C@H](COCc1ccccc1)CN([C@H](C)c1ccccc1)S2(=O)=O | active: 20.6 µM | –
11 | Cc1ccccc1CSc1nn2c(=O)c(C)nnc2s1 | inactive | –
12 | Cc1ccc(-c2nnc(N3CCN(C(=O)CN4C(=O)c5ccccc5C4=O)CC3)c3ccccc23)cc1 | inconclusive [inhibitor, single point] | –
13 | Clc1ccc(CSc2nnc(-c3sccc3-n3cccc3)o2)cc1 | inconclusive [inhibitor, partial curve, poor fit] | –
14 | CCS(=O)(=O)NC(C)C(c1cccs1)N1CCN(c2ccc(F)cc2)CC1 (stereo not given) | active: 20.6 µM | –
15 | Cc1nc2nc(C)c(CCC(=O)NCCCN3CCN(c4cccc(Cl)c4)CC3)c(C)n2n1 | inconclusive [inhibitor, single point] | –
16 | COC(=O)c1c(NC(=O)C(=O)N2CCOCC2)sc2c1CCC2 | – | inconclusive: -4.97% [inhibitor]
17 | CCn1cc2nc(SCC(=O)Nc3ccc(OC)c(OC)c3)n(Cc3ccc(OC)cc3)c(=O)c2n1 | inconclusive [inhibitor, single point] | –
18 | CN(Cc1cccc([N+](=O)[O-])c1)Cc1cccc2ccccc12 | inconclusive [inhibitor, partial curve] | –
19 | N/C(=N\NC(=O)c1ccccc1)c1cc2ccccc2oc1=O | inconclusive [inhibitor, single point] | –
20 | COCCc1nn2c(=O)cc(COC(=O)COc3ccccc3C)nc2s1 | inactive | –
21 | CN(CCc1ccccn1)C(=S)Nc1ccc(Cl)c(Cl)c1 | inconclusive [inhibitor, single point] | –
22 | COc1ccc(Cl)cc1Nc1ncnc2c1nc1n2CCCC1 | active: 16.4 µM | –
23 | COC(=O)c1sc2nc(CSc3ccc(Br)cc3)[nH]c(=O)c2c1C | active: 20.6 µM | –

Row | Structure (SMILES) | Potency | activity change, negative = growth inhibition
24 | COc1ccc(C(=O)C(=NNc2ccccc2)c2ccc(OC)cc2)cc1 | – | inconclusive: -31.1% [inhibitor]
25 | CCC(C)c1ccccc1N1CC(C(=O)N2CCN(S(=O)(=O)c3ccccc3Br)CC2)CC1=O (stereo not given) | inconclusive [inhibitor, single point] | –
26 | CCOC(=O)c1ccccc1NC1(c2ccc(OC)cc2)C(=O)c2ccccc2C1=O | inconclusive [inhibitor, single point] | –
27 | Cc1ccc(C(=O)c2c(NC(=O)c3ccncc3)sc3c2CCCC3)cc1 | inconclusive [inhibitor, partial curve] | –
28 | c1ccc(-c2cc(-c3nc4ccccc4[nH]3)c3ccccc3n2)cc1 | inconclusive [inhibitor, single point] | –
29 | COc1ccc(N(CC(=O)NCc2ccccc2C)S(=O)(=O)c2ccc(C)cc2)cc1OC | – | inconclusive: -32.2% [inhibitor]
30 | O=c1cnc2ccccc2n1Cc1ccccc1C(F)(F)F | inactive | –
31 | c1ccc2c(c1)CCN(Cc1nnnn1Cc1ccc3c(c1)OCO3)C2 | inactive | –
32 | COc1ccc(S(=O)(=O)N2CCOCC2)cc1NC(=O)c1ccccc1-c1ccc(C(F)(F)F)cc1 | inconclusive [inhibitor, single point] | –
33 | Cc1cc(C)c(NC(=O)CSc2nnc3[nH]c(=O)cc(C)n23)c(C)c1 | inactive | –
34 | COc1cc(Br)ccc1C1CC(=O)C(C)C(c2ccc(Br)cc2OC)N1 (stereo not given) | inactive | –
35 | O=c1c2ccccc2n2c(-c3ccc(F)c(F)c3)nnc2n1CCc1ccccc1 | inconclusive [inhibitor, single point] | –
36 | O=S(=O)(NCCSCc1c(Cl)cccc1Cl)c1ccc2c(c1)OCCO2 | inconclusive [inhibitor, single point] | –
37 | O=C(Nc1cccc(S(=O)(=O)N2CCOCC2)c1)c1ccc(N2CCCC2=O)cc1 | inactive | –
38 | O=C(CSc1nnc(Cc2cccs2)n1C1CCCCC1)N1CCCc2ccccc21 | inconclusive [inhibitor, single point] | –
39 | COCC(=O)N[C@@H]1c2cc(OC)c(OC)cc2C[C@H]1OCc1ccccc1 | inactive | –
40 | CC12CCC(=O)N1C(C(=O)Nc1ccccc1N1CCCC1)CS2 (stereo not given) | inconclusive [inhibitor, single point] | –
41 | C[C@H](CO)N1C[C@H](C)[C@@H](CN(C)S(=O)(=O)c2ccccc2)Oc2ccc(NC(=O)C3CC3)cc2C1=O | inconclusive [inhibitor, single point] | –
42 | COCCNC(=O)/C(C#N)=C/c1cccc(/C=C(\C#N)C(=O)NCCOC)c1 | active: 11.6 µM | –
43 | Cc1ccc(C)c(NC(=O)CN(C)C(=O)c2sccc2C)c1 | inactive | –
44 | CCOC(=O)c1c(S(=O)(=O)N2CCCC(C(=O)Nc3ccc(C)cc3C)C2)c(C)n(CC)c1C (stereo not given) | inconclusive [inhibitor, single point] | –
45 | CCN1C(=O)[C@H]2[C@@H](c3ccc(-c4ccccc4)cc3)N3CCCC[C@@]3(C(=O)OC)[C@H]2C1=O | active: 18.4 µM | –
